Out of some 410,000 compounds screened, about 6,400 (1.6%) were called active. The shares of active, inactive and inconclusive entries below differ from those in the screen. Calls come from the whole dose curve; as a rule, active = well fitted inhibition curve with a large enough effect; inconclusive = small, poorly fitted or top-dose-only effect; inactive = no such curve, though single readings can be large or run the other way. Potencies of inconclusive entries are left out as doubtful fits.
Target: Glucagon-like peptide 1 receptor (Homo sapiens) (UniProt P43220)
Experiment: qHTS of GLP-1 Receptor Inverse Agonists (Inhibition Mode); note: nearly all actives have a fitted effect of over 55% in size
Settings: HEK293 GLP-1R CRE-luciferase, luminescence, 24 h, GLP-1R form is constitutively active; series mostly up to 38.3 µM
Outline: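 Seeding at 200 cells/uL, 12 h culture, 24 hr compound treatment, then luciferase reagent and a luminescence read; cells are HEK293 stably expressing a constitutively active GLP-1R plus cAMP-responsive luciferase.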
Potency is the fitted concentration of half-maximal effect; tags give direction and shape of the fitted curve.

UniProt P43220, sequence (P43220 whole entry, looked up): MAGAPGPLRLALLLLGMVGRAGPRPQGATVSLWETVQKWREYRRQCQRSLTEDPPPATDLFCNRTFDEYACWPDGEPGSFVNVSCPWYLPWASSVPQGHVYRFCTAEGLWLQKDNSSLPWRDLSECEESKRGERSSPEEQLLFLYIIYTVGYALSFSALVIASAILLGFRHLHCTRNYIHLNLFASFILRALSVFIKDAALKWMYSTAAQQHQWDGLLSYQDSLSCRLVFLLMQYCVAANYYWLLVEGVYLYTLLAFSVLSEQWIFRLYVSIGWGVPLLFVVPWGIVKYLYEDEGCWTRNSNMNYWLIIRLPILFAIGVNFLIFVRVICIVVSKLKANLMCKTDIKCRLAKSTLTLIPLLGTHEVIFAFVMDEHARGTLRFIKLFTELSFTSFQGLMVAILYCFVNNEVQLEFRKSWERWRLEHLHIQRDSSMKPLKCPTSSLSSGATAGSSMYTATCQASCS

| SMILES | Potency |
| --- | --- |
| Cc1ccc(S(=O)(=O)N2CCN(C(=O)COC(=O)c3ccc(O)cc3)CC2)c(C)c1 | inconclusive [inhibitor, partial curve, poor fit] |
| N#Cc1c(N)nc(SCC(=O)NC2CCCCC2)c(C#N)c1-c1ccc(Cl)cc1 | inactive |
| COc1ccc(OCc2cc(C(=O)N3CCCCCCC3)no2)c(Cl)c1 | inconclusive [inhibitor, partial curve, poor fit] |
| CN(C)S(=O)(=O)c1cccc(NC(=O)CCCSc2ccccc2)c1 | inconclusive [inhibitor, partial curve, poor fit] |
| CCCCCCCCS(=O)c1sc2nc(C)cc(C)c2c1N (stereo not given) | inconclusive [inhibitor, single point] |
| COc1ccc(-n2c(=S)[nH]c3cc(C(=O)NCc4ccccc4OC)ccc3c2=O)c(OC)c1 | inconclusive [inhibitor, single point] |
| COc1ccccc1OCC(=O)N1CCCC(Nc2ccc(C)c(C)c2)C1 (stereo not given) | inconclusive [inhibitor, single point] |
| COc1cccc(-c2nnc3n2N=C(c2cc(OC)ccc2OC)CS3)c1 | inactive |
| COc1cc(/C=C(\C#N)c2nc3ccccc3[nH]2)c([N+](=O)[O-])cc1OCc1ccccc1 | inconclusive [inhibitor, partial curve, poor fit] |
| c1cncc(-c2nnc(SCc3cccc4ccccc34)o2)c1 | inconclusive [inhibitor, single point] |
| CSc1ccccc1NC(=O)C1CC(c2ccccc2Cl)=NO1 (stereo not given) | inconclusive [inhibitor, single point] |
| CCOC(=O)c1ccc2nc3c(cc2c1)CCS3 | inactive |
| Cc1cc(C)cc(OCC(=O)NCC2(N3CCOCC3)CCCCC2)c1 | inconclusive [inhibitor, single point] |
| COc1cccc(C(C)(O)c2nc(-c3ccc(S(C)(=O)=O)cc3)cs2)c1 (stereo not given) | inactive |
| O=C(Cn1c(SCCOc2ccccc2Cl)nc2ccccc21)N1CCCCC1 | inconclusive [inhibitor, single point] |
| CCCN(C(=O)NCc1noc2ccc(C)cc12)c1ccc(Cl)c(Cl)c1 | inconclusive [inhibitor, single point] |
| O=C(NC(=S)NC1CCSC1=O)c1cccs1 (stereo not given) | inconclusive [inhibitor, partial curve] |
| CC1=C(C(=O)Nc2cccc(C(F)(F)F)c2)C(c2ccccn2)n2ncnc2N1 (stereo not given) | inactive |
| CC(c1ccccc1)N(C)CC(=O)NC(=O)NCCC1=CCCCC1 (stereo not given) | inconclusive [inhibitor, partial curve, poor fit] |
| C/C(=N\Nc1cccc(Cl)c1)c1ccc(-n2ccnc2)cc1 | inconclusive [inhibitor, single point] |

| SMILES | Potency |
| --- | --- |
| CC1=CCC2C(=O)N(c3ccc(C(=O)Nc4ccccc4Cl)cc3)C(=O)C2C1 (stereo not given) | inconclusive [inhibitor, partial curve, poor fit] |
| CCC(C)COC(c1ccccc1)(c1ccccc1)C(Oc1nc(C)cc(C)n1)C(=O)O (stereo not given) | inconclusive [inhibitor, single point] |
| CCOC(=O)C1CCN(Cc2ccc(OC)c(OCc3ccccc3)c2)CC1 | inconclusive [inhibitor, partial curve, poor fit] |
| CC(=O)c1cccc(NC(=O)c2ccc(-c3ccccc3[N+](=O)[O-])o2)c1 | inconclusive [inhibitor, single point] |
| CCCc1cnc(Nc2nc(C(N)Cc3ccc(OC)cc3)cs2)nc1 (stereo not given) | inconclusive [inhibitor, single point] |
| CCc1ccc2c(CC(=O)Nc3cccc(S(=O)(=O)N4CCOCC4)c3)coc2c1 | inconclusive [inhibitor, partial curve, poor fit] |
| CN(CC(=O)Nc1ccc(SC(F)F)cc1)C1CCCCC1 | inconclusive [inhibitor, partial curve] |
| COc1ccc(N2CCN(C(=O)c3nn(C)c4c3CSc3ccccc3-4)CC2)cc1 | inconclusive [inhibitor, partial curve, poor fit] |
| COc1cc2nc(N(CCCN(C)C)C(=O)c3ccc(S(=O)(=O)N4CCc5ccccc5C4)cc3)sc2cc1OC | inconclusive [inhibitor, single point] |
| CCN(CC)c1ccc(NC(=O)c2sc3nc(-c4ccccc4)cn3c2C)cc1 | inconclusive [inhibitor, partial curve, poor fit] |
| CC(C)(CNC(=O)c1cccc(F)c1)CNC(=O)c1cccc(F)c1 | inconclusive [inhibitor, single point] |
| COc1ccc2oc(=O)c(-c3nc4ccccc4o3)cc2c1 | inactive |
| Cc1nc(-c2ccc(F)cc2)sc1CCNC(=O)C(=O)Nc1ccc2c(c1)OCO2 | inactive |
| Cc1cc(C)c(/C=N/NC(=O)c2nnn(-c3nonc3N)c2COc2ccc(F)cc2)c(C)c1 | inconclusive [inhibitor, partial curve, poor fit] |
| Cc1ccc(S(=O)(=O)N2CCCc3cc(NC(=O)c4ccc(C(C)(C)C)cc4)ccc32)cc1 | inconclusive [inhibitor, full curve] |
| O=C(/C=C/c1ccc(-c2ccccc2[N+](=O)[O-])o1)c1ccc(F)cc1 | inconclusive [inhibitor, single point] |
| COc1cccc(CN(C)C(=O)/C=C/c2ccc(S(=O)(=O)N3CCCCCC3)cc2)c1 | inconclusive [inhibitor, single point] |
| CN(C)CCNc1ncnc2c1ncn2[C@H]1CN(Cc2ccco2)C[C@@H](CO)O1 | inactive |
| COc1cccc(-c2nc(CS(=O)(=O)CC(=O)NCCCc3ccccc3)c(C)o2)c1 | inconclusive [inhibitor, single point] |
| O=S(=O)(c1ccccc1)N1CCC2(CC1)OCCN2S(=O)(=O)c1cccs1 | inactive |

Source: PubChem BioAssay AID624417 (National Center for Advancing Translational Sciences (NCATS), 2012)
